The other results are listed elsewhere or left out. No stated cut-off is given here; in the data, active = 3.2 or more and inactive = the rest. Most of these values are background signal.
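Further: displayed peptides selected on beads carrying the immobilized SH2 domain, with library peptides lacking any tyrosine serving as negative controls.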

The first assay deals with SHP2 C-SH2 domain E139D. The assay is described as follows: enrichment score (SH2-bound / input frequency) (ratio); bacterial display of known human phosphotyrosine sites (pTyr-Var adds point mutants) read by sequencing; higher = stronger binding; tyrosines were phosphorylated by kinases first. The settings on record: peptide library: pTyr-Var.
GGQSVYHVNLH [HINT1_Y109_H112N]: the enrichment score is inactive: 0.799.

Take APNEFYDGDHD [HDAC3_Y414]: the enrichment score is inactive: 0.4.

Turning to ALARKYHGGGG [HBB_Y146_H144R], the enrichment score was inactive: 0.606.

For ILGLEYSLRVP [HELZ2_Y1304], the enrichment score is inactive: 1.43.

As to AHAGEHGAEAL [HBA1_Y25_Y25H], the enrichment score was inactive: 0.534.

For RLRVVYPWTQR [HBB_Y36_L33R], the enrichment score is inactive: 0.218.

On to IEDNEYTAREG [HCK_Y411], for which the enrichment score is inactive: 0.496.

For KQVEQYMSFHK [HCN1_Y417], the enrichment score was inactive: 0.932.

Turning to KQMEQYMSFHK [HCN1_Y417_V414M], the enrichment score was inactive: 0.894.

For the molecule VLTPKYRGGGG [HBA1_Y141_S139P], the enrichment score was inactive: 0.395.

Turning to PTTKTYFRHFD [HBA1_Y43_P45R], the enrichment score is inactive: 0.759.

For the molecule PVQAAYQKVVA [HBB_Y131], the enrichment score is inactive: 0.762.

Take ARAGEYGAEAL [HBA1_Y25_H21R]: the enrichment score was inactive: 0.646.

Consider VLTSKYLGGGG [HBA1_Y141_R142L], for which the enrichment score is inactive: 1.16.

In the case of ENFSEYQEIAV [HEMGN_Y150], the enrichment score was inactive: 0.74.

As for AHPGEYGAEAL [HBA1_Y25_A22P], the enrichment score is inactive: 0.545.

Consider GNLLIYTEFGK [HGD_Y166], for which the enrichment score is inactive: 1.46.

In the case of PTTKTYLPHFD [HBA1_Y43_F44L], the enrichment score was inactive: 0.88.

As to PVQAADQKVVA [HBB_Y131_Y131D], the enrichment score is inactive: 0.412.

The target of a further assay is SHP2 C-SH2 domain wild-type. The assay is described as above. The settings on record: peptide library: pTyr-Var.
For GGQSVYHVNLH [HINT1_Y109_H112N], the enrichment score was inactive: 0.609.

Consider APNEFYDGDHD [HDAC3_Y414], for which the enrichment score is inactive: 0.6.

With ALARKYHGGGG [HBB_Y146_H144R], the enrichment score was inactive: 0.474.

For ILGLEYSLRVP [HELZ2_Y1304], the enrichment score was inactive: 1.38.

For the molecule AHAGEHGAEAL [HBA1_Y25_Y25H], the enrichment score is inactive: 0.456.

In the case of RLRVVYPWTQR [HBB_Y36_L33R], the enrichment score was inactive: 0.238.

Regarding IEDNEYTAREG [HCK_Y411], the enrichment score is inactive: 0.401.

Take KQVEQYMSFHK [HCN1_Y417]: the enrichment score is inactive: 1.01.

For the molecule KQMEQYMSFHK [HCN1_Y417_V414M], the enrichment score is inactive: 0.741.

VLTPKYRGGGG [HBA1_Y141_S139P]: the enrichment score was inactive: 0.599.

Turning to PTTKTYFRHFD [HBA1_Y43_P45R], the enrichment score is inactive: 0.569.

With PVQAAYQKVVA [HBB_Y131], the enrichment score was inactive: 0.626.

Turning to ARAGEYGAEAL [HBA1_Y25_H21R], the enrichment score was inactive: 0.572.

Consider VLTSKYLGGGG [HBA1_Y141_R142L], for which the enrichment score was inactive: 0.658.

Regarding ENFSEYQEIAV [HEMGN_Y150], the enrichment score is inactive: 0.677.

Consider AHPGEYGAEAL [HBA1_Y25_A22P], for which the enrichment score is inactive: 0.615.

For the molecule GNLLIYTEFGK [HGD_Y166], the enrichment score was inactive: 1.13.

PTTKTYLPHFD [HBA1_Y43_F44L]: the enrichment score was inactive: 0.875.

Regarding PVQAADQKVVA [HBB_Y131_Y131D], the enrichment score is inactive: 0.58.

Another assay concerns the target SHP2 N-SH2 domain L43F. Described as above. The settings on record: peptide library: pTyr-Var.
Turning to GGQSVYHVNLH [HINT1_Y109_H112N], the enrichment score was inactive: 0.536.

Regarding APNEFYDGDHD [HDAC3_Y414], the enrichment score was inactive: 0.463.

For ALARKYHGGGG [HBB_Y146_H144R], the enrichment score is inactive: 0.483.

With ILGLEYSLRVP [HELZ2_Y1304], the enrichment score was inactive: 1.23.

Take AHAGEHGAEAL [HBA1_Y25_Y25H]: the enrichment score is inactive: 0.423.

Turning to RLRVVYPWTQR [HBB_Y36_L33R], the enrichment score was inactive: 0.214.

With IEDNEYTAREG [HCK_Y411], the enrichment score is inactive: 0.643.

As to KQVEQYMSFHK [HCN1_Y417], the enrichment score is inactive: 0.923.

With KQMEQYMSFHK [HCN1_Y417_V414M], the enrichment score is inactive: 1.14.

With VLTPKYRGGGG [HBA1_Y141_S139P], the enrichment score was inactive: 0.537.

For PTTKTYFRHFD [HBA1_Y43_P45R], the enrichment score was inactive: 0.74.

For the molecule PVQAAYQKVVA [HBB_Y131], the enrichment score is inactive: 0.851.

Regarding ARAGEYGAEAL [HBA1_Y25_H21R], the enrichment score was inactive: 0.568.

Take VLTSKYLGGGG [HBA1_Y141_R142L]: the enrichment score is inactive: 0.684.

Regarding ENFSEYQEIAV [HEMGN_Y150], the enrichment score was inactive: 0.686.

As to AHPGEYGAEAL [HBA1_Y25_A22P], the enrichment score is inactive: 0.447.

Regarding GNLLIYTEFGK [HGD_Y166], the enrichment score was inactive: 1.24.

As for PTTKTYLPHFD [HBA1_Y43_F44L], the enrichment score is inactive: 0.866.

Consider PVQAADQKVVA [HBB_Y131_Y131D], for which the enrichment score is inactive: 0.449.

The next assay addresses SHP2 N-SH2 domain T42A. The description is as above. The settings on record: peptide library: pTyr-Var.
For GGQSVYHVNLH [HINT1_Y109_H112N], the enrichment score was inactive: 0.545.

Consider APNEFYDGDHD [HDAC3_Y414], for which the enrichment score was inactive: 0.485.

ALARKYHGGGG [HBB_Y146_H144R]: the enrichment score was inactive: 0.457.

Regarding ILGLEYSLRVP [HELZ2_Y1304], the enrichment score was inactive: 1.21.

Regarding AHAGEHGAEAL [HBA1_Y25_Y25H], the enrichment score was inactive: 0.492.

On to RLRVVYPWTQR [HBB_Y36_L33R], for which the enrichment score was inactive: 0.298.

For IEDNEYTAREG [HCK_Y411], the enrichment score was inactive: 0.452.

On to KQVEQYMSFHK [HCN1_Y417], for which the enrichment score was inactive: 0.77.

With KQMEQYMSFHK [HCN1_Y417_V414M], the enrichment score was inactive: 0.897.

Consider VLTPKYRGGGG [HBA1_Y141_S139P], for which the enrichment score is inactive: 0.488.

Turning to PTTKTYFRHFD [HBA1_Y43_P45R], the enrichment score is inactive: 0.623.

In the case of PVQAAYQKVVA [HBB_Y131], the enrichment score was inactive: 0.622.

Turning to ARAGEYGAEAL [HBA1_Y25_H21R], the enrichment score is inactive: 0.495.

For the molecule VLTSKYLGGGG [HBA1_Y141_R142L], the enrichment score is inactive: 0.612.

ENFSEYQEIAV [HEMGN_Y150]: the enrichment score was inactive: 0.478.

AHPGEYGAEAL [HBA1_Y25_A22P]: the enrichment score was inactive: 0.466.

Regarding GNLLIYTEFGK [HGD_Y166], the enrichment score was inactive: 0.991.

On to PTTKTYLPHFD [HBA1_Y43_F44L], for which the enrichment score is inactive: 0.673.

On to PVQAADQKVVA [HBB_Y131_Y131D], for which the enrichment score was inactive: 0.425.

The target in a further assay is SHP2 N-SH2 domain T52S. The description is as above. The conditions noted are these: peptide library: pTyr-Var.
For the molecule GGQSVYHVNLH [HINT1_Y109_H112N], the enrichment score is inactive: 0.751.

As for APNEFYDGDHD [HDAC3_Y414], the enrichment score is inactive: 0.372.

ALARKYHGGGG [HBB_Y146_H144R]: the enrichment score is inactive: 0.532.

Turning to ILGLEYSLRVP [HELZ2_Y1304], the enrichment score is inactive: 1.29.

As to AHAGEHGAEAL [HBA1_Y25_Y25H], the enrichment score is inactive: 0.562.

Turning to RLRVVYPWTQR [HBB_Y36_L33R], the enrichment score is inactive: 0.238.

Regarding IEDNEYTAREG [HCK_Y411], the enrichment score is inactive: 0.462.

Turning to KQVEQYMSFHK [HCN1_Y417], the enrichment score was inactive: 0.755.

For KQMEQYMSFHK [HCN1_Y417_V414M], the enrichment score is inactive: 0.634.

For VLTPKYRGGGG [HBA1_Y141_S139P], the enrichment score is inactive: 0.422.

With PTTKTYFRHFD [HBA1_Y43_P45R], the enrichment score was inactive: 0.517.

As to PVQAAYQKVVA [HBB_Y131], the enrichment score was inactive: 0.697.

Consider ARAGEYGAEAL [HBA1_Y25_H21R], for which the enrichment score was inactive: 0.474.

In the case of VLTSKYLGGGG [HBA1_Y141_R142L], the enrichment score is inactive: 0.854.

In the case of ENFSEYQEIAV [HEMGN_Y150], the enrichment score is inactive: 0.715.

Regarding AHPGEYGAEAL [HBA1_Y25_A22P], the enrichment score is inactive: 0.436.

Regarding GNLLIYTEFGK [HGD_Y166], the enrichment score was inactive: 1.07.

Regarding PTTKTYLPHFD [HBA1_Y43_F44L], the enrichment score is inactive: 0.816.

As to PVQAADQKVVA [HBB_Y131_Y131D], the enrichment score is inactive: 0.616.

Another assay concerns the target SHP2 N-SH2 domain wild-type. Described as above. The settings on record: peptide library: pTyr-Var.
Turning to GGQSVYHVNLH [HINT1_Y109_H112N], the enrichment score is inactive: 0.749.

On to APNEFYDGDHD [HDAC3_Y414], for which the enrichment score is inactive: 0.436.

On to ALARKYHGGGG [HBB_Y146_H144R], for which the enrichment score is inactive: 0.589.

On to ILGLEYSLRVP [HELZ2_Y1304], for which the enrichment score is inactive: 1.37.

As for AHAGEHGAEAL [HBA1_Y25_Y25H], the enrichment score is inactive: 0.449.

RLRVVYPWTQR [HBB_Y36_L33R]: the enrichment score is inactive: 0.189.

For the molecule IEDNEYTAREG [HCK_Y411], the enrichment score was inactive: 0.762.

KQVEQYMSFHK [HCN1_Y417]: the enrichment score is inactive: 0.908.

With KQMEQYMSFHK [HCN1_Y417_V414M], the enrichment score was inactive: 1.02.

Regarding VLTPKYRGGGG [HBA1_Y141_S139P], the enrichment score was inactive: 0.629.

As for PTTKTYFRHFD [HBA1_Y43_P45R], the enrichment score was inactive: 0.82.

For PVQAAYQKVVA [HBB_Y131], the enrichment score was inactive: 0.835.

ARAGEYGAEAL [HBA1_Y25_H21R]: the enrichment score is inactive: 0.768.

As to VLTSKYLGGGG [HBA1_Y141_R142L], the enrichment score was inactive: 0.638.

Take ENFSEYQEIAV [HEMGN_Y150]: the enrichment score is inactive: 0.744.

Consider AHPGEYGAEAL [HBA1_Y25_A22P], for which the enrichment score was inactive: 0.483.

With GNLLIYTEFGK [HGD_Y166], the enrichment score is inactive: 1.4.

Regarding PTTKTYLPHFD [HBA1_Y43_F44L], the enrichment score was inactive: 1.01.

Take PVQAADQKVVA [HBB_Y131_Y131D]: the enrichment score is inactive: 0.556.
